# Source: PubChem BioAssay AID1240 (Sanford-Burnham Center for Chemical Genomics, 2008)
# The campaign covered roughly 50,000 compounds. About 800 (1.6%) showed an effect of 50% or more. This is one part of the list.
# Target: Bcl-2-like protein 10 (Homo sapiens) (UniProt Q9HD36)
# Experiment: TR3 peptide-Bcl-B binding displacers, biochemical primary FP assay, phenotype converters (AID 1240);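 further: 0% = Bcl-B with tracer peptide and DMSO and 100% = tracer peptide lacking Bcl-B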
# Conditions: GST-Bcl-B / FITC-TR3 peptide fluorescence polarization; stronger effect = higher value; compound at 3.75 mg/L
# Chain of UniProt Q9HD36 (Q9HD36 whole entry, looked up): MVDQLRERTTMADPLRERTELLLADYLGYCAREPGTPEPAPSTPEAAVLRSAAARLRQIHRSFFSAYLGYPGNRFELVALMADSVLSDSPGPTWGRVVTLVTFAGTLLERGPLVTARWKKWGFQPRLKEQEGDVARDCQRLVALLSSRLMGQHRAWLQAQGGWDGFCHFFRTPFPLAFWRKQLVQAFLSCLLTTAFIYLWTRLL
row,Structure (SMILES),displacement [%]
1,O=C(Cc1ccccc1)NC(NC(=S)Nc1ccccc1Cl)C(Cl)(Cl)Cl (centres undefined),3.9
2,COc1cc(/C=c2\sc3nc4ccccc4n3c2=O)ccc1OS(=O)(=O)c1ccccc1,13.4
3,CCOC(=O)/C(C#N)=C\c1ccc(F)cc1,2.3
4,Cc1ccccc1-c1cc(C(=O)Nc2ncccc2C)c2ccccc2n1,-39.1
5,Cc1ccc(S(=O)(=O)N(CC(O)CN2CCOCC2)c2cccc3ccccc23)cc1 (centres undefined),-1.2
6,Cc1cc(OCC(=O)NCCCN(C)C)ccc1Br,0.7
7,O=C(Nc1ccc(Cl)c(Cl)c1)c1cnn2c1NC(c1ccccc1)CC2C(F)(F)F (centres undefined),-10.4
8,Cc1c(NC(=O)CCN2C(=O)c3ccccc3C2=O)c(=O)n(-c2ccccc2)n1C,-13.6
9,COc1ccc(C2=N/C(=C/c3ccccc3OC)C(=O)N2c2ccccc2)cc1,6.4
10,Nc1nnc(SCc2ccccc2F)s1,1.4
11,Cc1ccc(/C=C2\SC(=S)N(NC(=O)c3cccc([N+](=O)[O-])c3)C2=O)cc1,-1.6
12,C/C=C/COC(=O)C1=C(C)NC(=O)NC1c1ccccc1F (centres undefined),3
13,O=C(Nc1nc(C23CC4CC(CC(C4)C2)C3)cs1)C(=O)NC1CC1,-3.8
14,O=C1CCCCC1C(Nc1ccc2ncccc2c1)c1ccc(F)cc1 (centres undefined),2.3
15,O=C(Nc1ccc(-c2nc3ccccc3s2)cc1)c1cccc(C(F)(F)F)c1,9.6
16,CCOC(=O)C1=C(C)NC2=C(C(=O)CCC2)C1c1ccc(Br)s1 (centres undefined),7.9
17,O=C(O)c1ccc(-c2n[nH]c(=O)c3ccccc23)cc1,29.5
18,Cc1ccc2nc(NC(=O)c3cccc4ccccc34)sc2c1,-6.7
19,Cc1ccc(S(=O)(=O)C(CC(=O)c2cccs2)c2ccc(Cl)cc2)cc1 (centres undefined),-0.9
20,O=C(NC(=S)Nc1cc(-c2nc3ccccc3s2)ccc1Cl)c1ccc(Cl)cc1,37.3
21,O=C1CC(Cc2ccc(Br)cc2)C(=O)N1Cc1ccccc1 (centres undefined),9.6
22,O=C(NCc1ccncc1)c1ccc(-c2ccccc2)cc1,3.6

row,Structure (SMILES),displacement [%]
1,COc1cc(OC)cc(C(=O)Nc2ccc(N3CCOCC3)cc2)c1,-1.3
2,Cc1ccc2oc(-c3cc(NC(=O)/C=C/c4cccc([N+](=O)[O-])c4)ccc3O)nc2c1,4.7
3,CC(N=Cc1ccc(O)cc1)C1COc2ccccc2O1 (centres undefined),1.4
4,CCCCCc1ccc(-c2ccc(-c3ncc([N+](=O)[O-])cn3)cc2)cc1,1.7
5,Cc1cccc(OCCn2cc(C=C3C(=O)NC(=S)NC3=O)c3ccccc32)c1,11.2
6,O=C1NN(c2ccccc2)C(=O)/C1=C\c1cccc(I)c1,23
7,COc1ccc(OC(=O)c2ccc(Br)c(S(=O)(=O)N3CCCCC3)c2)cc1,-12
8,CCc1nnc(NC(=O)c2ccc(Br)o2)s1,24.7
9,Cc1ccc(C(=O)NCCN2Cc3ccccc3C2=O)cc1,10.5
10,O=C(Nc1ccccc1)Nc1nnc(-c2ccccc2F)s1,10
11,COc1ccc(OC)c(Nc2nc3nonc3nc2N2CCCCC2)c1,2.3
12,CCOc1ccc(N(CC(=O)NCCCN(C)C)S(C)(=O)=O)cc1,3.2
13,O=C(NC(=S)Nc1ccc(NC(=O)c2ccc(Cl)cc2Cl)cc1)c1ccccc1,9
14,COc1ccc(N(Cc2ccc(C(=O)NCc3ccccc3OC)cc2)S(=O)(=O)c2ccccc2)cc1,9.6
15,CCOc1cc(C(=O)NCc2ccco2)cc(OCC)c1OCC,5.4
16,N#Cc1ccc(/C=N/Nc2nc(-c3ccccc3)cs2)cc1,-23.2
17,Cc1cccc(N2C(=O)NC(=O)/C(=C/c3ccccc3C)C2=O)c1,-13.5
18,O=C1c2cccc3cccc(c23)C(=O)N1CCN1CCN(S(=O)(=O)c2ccc(I)cc2)CC1,-6.9
19,Cc1n[nH]c(C)c1CCC(=O)N/N=C/c1ccc(O)cc1,-14.1
20,O=C(NN1C(=O)c2ccc(C(=O)c3ccc4c(c3)C(=O)N(NC(=O)c3ccncc3)C4=O)cc2C1=O)c1ccncc1,0.2
21,O=C(CC1S/C(=N\N=C\c2ccco2)NC1=O)Nc1cccc(Cl)c1Cl (centres undefined),11
22,COc1c(Cl)cc(C(=O)Nc2cccc(C)c2)cc1Cl,3.1

row,Structure (SMILES),displacement [%]
1,O=C(CCNc1ccc(Br)cc1)c1cccc([N+](=O)[O-])c1,-10.4
2,COc1cccc(NC2=NS(=O)(=O)c3cc([N+](=O)[O-])ccc32)c1,7.4
3,O=C(Nc1cccc(O)c1)c1ccc2c(c1)C(=O)N(c1ccccn1)C2=O,4.3
4,O=C(O)/C=C/c1ccc(S(=O)(=O)Nc2ccccn2)cc1,-5.9
5,CN1C(=O)C(=Cc2cccc(Cl)c2Cl)C(=O)N(C)C1=O,14.5
6,COc1ccccc1/C=N/NC(=O)COc1c(Br)cc(Br)cc1Br,14.7
7,COc1ccc(C(=O)NCCN2CCN(C(=O)c3ccc(OC)cc3)CC2)cc1,3.2
8,COc1cccc2c(Cl)cc(C)nc12,10.6
9,Cc1cc(C)cc(-n2c(O)c(/C=C3\C=Nc4ccccc43)c(=O)[nH]c2=O)c1,71.2
10,COC(=O)C1=C(C)NC(=O)CC1c1cc(Br)ccc1F (centres undefined),-6.5
11,O=C(NCc1cccs1)c1cc2n(n1)C(C(F)(F)F)CC(c1cccs1)N2 (centres undefined),0
12,CCOP(=O)(CN(C)S(=O)(=O)c1ccc(Br)cc1)OCC,16.7
13,O=C(CN(Cc1ccccc1)S(=O)(=O)c1ccccc1)NC1CCCCC1,10.6
14,Cc1ccc(C(O)(C(=O)NCCO)c2ccc(C)cc2)cc1,-2.2
15,Cc1cc(Oc2ccc(F)cc2)c(F)cc1[N+](=O)[O-],-1.8
16,CCOC(=O)C1=C(C)NC2=C(C(=O)c3ccccc32)C1c1ccc2c(c1)OCO2 (centres undefined),5
17,Cc1ccccc1OCC(=O)Nc1cccc(-c2nc3ccccc3[nH]2)c1,24.9
18,COc1ccc(/C=C2\SC(=S)N(NC(=O)c3ccccc3Br)C2=O)cc1OC,9.1
19,Cc1cccc(C2C3(OC(c4ccc(Br)cc4)C24C(=O)c2ccccc2C4=O)C(=O)c2ccccc2C3=O)c1 (centres undefined),7.3
20,COc1cc(C=C2C(=O)NC(=S)NC2=O)ccc1OCc1ccc(C(=O)O)cc1,5.5
21,Fc1ccc(-c2nnc(-c3ccco3)o2)cc1,14
22,CCOc1ccc(N(CC(=O)Nc2ccccc2OCC)S(C)(=O)=O)cc1,-2.2

row,Structure (SMILES),displacement [%]
1,O=C(/C=C/c1ccc([N+](=O)[O-])cc1)Nc1ccccc1Cl,1.7
2,CCOC(=O)C1=C(c2ccccc2)N=C2SCC(=O)N2C1c1ccccc1OC (centres undefined),-1.7
3,CCN(C(=O)c1ccccc1[N+](=O)[O-])c1ccccc1,-4.8
4,CCOc1cccc(C2C(C(=O)OC)=C(C)NC3=C2C(=O)CC(C)(C)C3)c1 (centres undefined),-6
5,O=C(c1cccnc1)N1CCN(CCN2C(=O)C3C4C=CC(C4)C3C2=O)CC1 (centres undefined),-0.2
6,COc1cccc(OCCNC(=O)c2cc(OC)c(OC)c(OC)c2)c1,11.6
7,O=c1[nH]c(=S)[nH]c2c1C1(CCCC1)Cc1ccccc1-2,-4.2
8,CCOC(=O)c1ccc(Nc2c(N)c(=O)oc3ccccc23)cc1,-8
9,O=C1C2CCCCC2C(=O)N1c1nc2ccccc2s1 (centres undefined),9.8
10,Cc1ccc(C(=O)N/C(=C\c2sccc2C)C(=O)NCCCN2CCOCC2)cc1,3.4
11,O=C1Nc2ccccc2C1(O)C/C(=N/O)c1ccc(Cl)cc1 (centres undefined),10.3
12,COc1cccc(C(=O)Nc2ccc3c(c2)OCCO3)c1,3.8
13,COc1ccc(-c2noc(/C=C/c3ccccc3)n2)cc1,19.1
14,COc1ccc(C(=O)N2CCN(C(=O)c3ccccc3F)CC2)cc1,5.9
15,O=C(CCNS(=O)(=O)c1ccccc1[N+](=O)[O-])Nc1ccc(I)cc1,11.7
16,COc1ccc(CC(Cc2nc3ccccc3[nH]2)c2nc3ccccc3[nH]2)cc1 (centres undefined),-0.7
17,CCOc1ccc(NC(=O)CCC(=O)NCCO)cc1,-1.9
18,Cc1nc2c(C)c(-c3ccccc3)[nH]n2c(=O)c1C,5.5
19,COC(=O)C1=CNC=C(C(=O)OC)C1c1cccc(OC)c1OC,-0.6
20,Cc1ccc(C)c(Nc2nc(-c3ccncc3)nc3ccccc23)c1,-6.2
21,COc1ccc2ccccc2c1C1NC(=S)NC(C)=C1C(=O)Nc1ccccc1C (centres undefined),-3.2
22,Cc1ccc(NC(=O)C2C3CC/C=C\CC/C=C/CCC32)cc1C (centres undefined),-4.4

row,Structure (SMILES),displacement [%]
1,CCCCOc1ccc(/C=C2\SC(=S)N(CCC(=O)OC)C2=O)cc1OC,54.1
2,CC1(C)Cc2ccccc2-c2nnc(-c3ccccc3Cl)n21,2.9
3,Cc1oc2ccc(OS(C)(=O)=O)cc2c1C(=O)OC(C)C,9.4
4,Cc1cccc(N/C=C/C(=O)c2ccc(Br)cc2)n1,-10.3
5,COc1cc(/C=C2/SC(=S)NC2=O)ccc1OS(=O)(=O)c1ccccc1[N+](=O)[O-],-4.7
6,Cc1ccccc1P(=O)(CO)c1ccccc1C,-15.8
7,COc1cc(/C=N\N2CCN(Cc3ccc(C)cc3)CC2)cc(Br)c1O,14.6
8,Cc1ccc(NC(=O)c2c(-c3ccccc3)noc2C)cc1C,-5.8
9,CN(C(=O)Cc1ccccc1)c1ccccc1,13.5
10,COc1ccc(C)cc1NC(=O)C(=O)NCC(C)C,-2.2
11,O=C(NCc1ccccc1)c1nn2c(C(F)(F)F)cc(-c3cccs3)nc2c1Cl,15.4
12,Oc1c(Br)cc2oc3c(c2c1/C=N/c1ncn[nH]1)CCCC3,8.5
13,CCn1c2ccccc2c2cc(CN3CCN(Cc4ccc(OC)c(Br)c4)CC3)ccc21,-12.3
14,COc1ccc(CCN2C(=O)C(C)C(Cc3ccc(C)cc3)C2=O)cc1OC (centres undefined),14.1
15,CC(=O)CSc1sc(=S)sc1SCC(C)=O,-17
16,O=S(=O)(Nc1ccccn1)c1ccc(-c2ccccc2)cc1,-5.1
17,Cc1ccc(C(=O)NC(Nc2ccc(F)cc2)C(Cl)(Cl)Cl)cc1 (centres undefined),-5.1
18,CCc1cc(C)nc2cc(-c3ccccc3)nn12,-8.1
19,CC1(C)CC(=O)C2=C(C1)NC1=C(C(=O)CC(C)(C)C1)C2c1ccccc1Cl,1.8
20,CC(=NCCN1CCNCC1)C1=C(O)CC(C)(C)CC1=O,-4.3
21,CC1=NN(c2cccc(C(=O)O)c2)C(=O)/C1=C\c1ccc2c(c1)OCO2,0.3
